# Experimental data from the supplement of paper PMC7826260.
# Some of the results follow. The data describe in vitro nicking of single-stranded DNA by Rep domains for 1 h at 37 °C with 3 µM enzyme; only the middle of the 90-letter strands is printed. Numbers give uncut DNA relative to the enzyme-free pool, as log2; strong cutting gives strongly negative numbers. There is no active / inactive call. Counts are relative to all reads; values above 0 arise when much of the pool is cut.
# Tested on: T1, Rep nickase domain of tomato golden mosaic virus
# T1 sequence (residues 1-124, tag not shown): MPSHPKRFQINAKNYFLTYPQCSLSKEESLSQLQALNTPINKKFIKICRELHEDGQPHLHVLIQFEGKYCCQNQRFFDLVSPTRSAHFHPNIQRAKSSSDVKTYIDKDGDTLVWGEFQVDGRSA
# Assay: uncleaved DNA left, log2 of reads against the no-enzyme library (log2 ratio); higher = less cleavage (more negative = more Rep cleavage of the k-mer); sequences stand for … in CTCGTCCG…ACCGGAGA
# Experimental: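 A pool of 90-nt single-stranded DNAs with seven random bases just before the constant AC of the nick site (name = the seven bases) was cut by 3 µM recombinant His6-SUMO-tagged Rep nickase domain (300 nM DNA, 50 mM HEPES pH 8.0, 50 mM NaCl, 1 mM MnCl2, 1 h, 37 °C, three replicates). Uncut DNA was amplified and sequenced.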
row,Sequence,uncleaved DNA left (log2)
1,ATGTCAT,-0.0628
2,TCCGACA,0.052
3,AGACTCG,0.08
4,CGCTGTC,-0.105
5,TTAAAAG,-0.0426
6,CGATACA,0.195
7,GCACTAA,-0.0937
8,CCGCATC,-0.00495
9,TCGTCCA,0.0353
10,CGTTGAA,-0.132
11,CGAGTTT,-0.0282
12,ACAGACC,-0.0171
13,CCTATAG,0.107
14,TAGGCGA,-0.111
15,GGCCTAG,0.142
16,CATACGT,-0.0572
17,AGGCTTT,0.106
18,TGGATAA,-0.0765
19,GGCGTAT,-0.0821
20,TCGTAGC,-0.0481

row,Sequence,uncleaved DNA left (log2)
1,AGGGTTT,0.14
2,AGGTGTA,0.0852
3,GGACAAA,-0.018
4,AGGCGGG,0.00618
5,TATAAGC,0.136
6,TCCTACA,-0.00843
7,TTCACCC,-0.0965
8,TCCCGCG,-0.111
9,CCAACCA,0.051
10,GGAGGTT,-0.0517
11,TACCGCA,-0.0329
12,AAATAGT,-3.96
13,GCCCGAG,0.0785
14,CGAGCTC,-0.135
15,GGCATTT,-0.0918
16,GATGCTC,0.00767
17,AATAGGT,0.102
18,CCACCAC,-0.134
19,TTTACGG,0.122
20,TACGCCC,-0.177
